Test results published in paper PMC12820563, “FoxP3 forms a head-to-head dimer in vivo and stabilizes its multimerization on adjacent microsatellites”.
Some of the results follow.

These sequences were tested against T1, MBP-FoxP1dN (Mus musculus, UniProt P58462 326-579) (assay: PD-seq (MBP pull-down with sequencing); 20 mM Tris-HCl pH 7.5, 100 mM NaCl, 1.5 mM MgCl2, 0.4 uM protein, 0.1 uM dsDNA library, 30 min, room temperature, amylose pull-down; high values mean tight binding). Details: protein: recombinant; tags: His6-MBP; chain copies: 2; dsDNA, one strand shown.
T1 sequence: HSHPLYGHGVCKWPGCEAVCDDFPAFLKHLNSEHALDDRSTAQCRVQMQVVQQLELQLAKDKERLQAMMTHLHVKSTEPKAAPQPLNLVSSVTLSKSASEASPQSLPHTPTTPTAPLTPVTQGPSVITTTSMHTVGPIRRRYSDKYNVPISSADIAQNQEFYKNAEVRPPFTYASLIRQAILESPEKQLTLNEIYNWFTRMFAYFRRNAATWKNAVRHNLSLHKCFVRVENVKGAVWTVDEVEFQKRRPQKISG
Procedure, shortened: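 In Tris pH 7.5 buffer with NaCl and MgCl2, 0.4 µM His6-MBP-tagged mouse FoxP3 or FoxP1 fragment lacking the N-terminus, from E. coli, met 0.1 µM Klenow-filled double-stranded degenerate DNA library for 30 min at room temperature. Three washes on amylose resin followed capture of the complexes, then proteinase K release of DNA, PCR barcoding and Illumina sequencing. Binding is taken as pooled-replicate reads-per-million enrichment of pull-down relative to input.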

Sequence	binding signal
GATGATTGTTCTCCCAGCTGATGAATTTTGCTTCTCGAGTAAACAAATTTTCCTAATCTTTCTGTTCAAGCGCCATCTAC	1.04 RPM ratio (pull-down/input)
GATGATTGTTCTCCCAGCTGATGAATTCTCTAATTCGAGTAAACAAATTTTCCTAATCTTTCTGTTCAAGCGCCATCTAC	0.933 RPM ratio (pull-down/input)
GATGATTGTTCTCCCAGCTGATGAATTCACGTGATCGAGTAAACAAATTTTCCTAATCTTTCTGTTCAAGCGCCATCTAC	0.794 RPM ratio (pull-down/input)
GATGATTGTTCTCCCAGCTGATGAATTTGACCTGTCGAGTAAACAAATTTTCCTAATCTTTCTGTTCAAGCGCCATCTAC	0.762 RPM ratio (pull-down/input)
GATGATTGTTCTCCCAGCTGATGAATTCCAACCCTCGAGTAAACAAATTTTCCTAATCTTTCTGTTCAAGCGCCATCTAC	0.758 RPM ratio (pull-down/input)
GATGATTGTTCTCCCAGCTGATGAATTTGGACACTCGAGTAAACAAATTTTCCTAATCTTTCTGTTCAAGCGCCATCTAC	0.899 RPM ratio (pull-down/input)
GATGATTGTTCTCCCAGCTGATGAATTCAGAGCTTCGAGTAAACAAATTTTCCTAATCTTTCTGTTCAAGCGCCATCTAC	0.783 RPM ratio (pull-down/input)
GATGATTGTTCTCCCAGCTGATGAATTGTGTGCCTCGAGTAAACAAATTTTCCTAATCTTTCTGTTCAAGCGCCATCTAC	1.14 RPM ratio (pull-down/input)
GATGATTGTTCTCCCAGCTGATGAATTGGAGGGTTCGAGTAAACAAATTTTCCTAATCTTTCTGTTCAAGCGCCATCTAC	0.86 RPM ratio (pull-down/input)
GATGATTGTTCTCCCAGCTGATGAATTAAGTCTCTCGAGTAAACAAATTTTCCTAATCTTTCTGTTCAAGCGCCATCTAC	0.885 RPM ratio (pull-down/input)
GATGATTGTTCTCCCAGCTGATGAATTTCACCATTCGAGTAAACAAATTTTCCTAATCTTTCTGTTCAAGCGCCATCTAC	0.883 RPM ratio (pull-down/input)
GATGATTGTTCTCCCAGCTGATGAATTTTCGGTTTCGAGTAAACAAATTTTCCTAATCTTTCTGTTCAAGCGCCATCTAC	0.921 RPM ratio (pull-down/input)
GATGATTGTTCTCCCAGCTGATGAATTCCATGACTCGAGTAAACAAATTTTCCTAATCTTTCTGTTCAAGCGCCATCTAC	0.839 RPM ratio (pull-down/input)
GATGATTGTTCTCCCAGCTGATGAATTAACATGGTCGAGTAAACAAATTTTCCTAATCTTTCTGTTCAAGCGCCATCTAC	0.917 RPM ratio (pull-down/input)
GATGATTGTTCTCCCAGCTGATGAATTCGACTGGTCGAGTAAACAAATTTTCCTAATCTTTCTGTTCAAGCGCCATCTAC	0.809 RPM ratio (pull-down/input)
GATGATTGTTCTCCCAGCTGATGAATTGAGAAGATCGAGTAAACAAATTTTCCTAATCTTTCTGTTCAAGCGCCATCTAC	0.831 RPM ratio (pull-down/input)
GATGATTGTTCTCCCAGCTGATGAATTCTTTGTCTCGAGTAAACAAATTTTCCTAATCTTTCTGTTCAAGCGCCATCTAC	0.931 RPM ratio (pull-down/input)
GATGATTGTTCTCCCAGCTGATGAATTAATGAAGTCGAGTAAACAAATTTTCCTAATCTTTCTGTTCAAGCGCCATCTAC	0.907 RPM ratio (pull-down/input)
GATGATTGTTCTCCCAGCTGATGAATTCACTAACTCGAGTAAACAAATTTTCCTAATCTTTCTGTTCAAGCGCCATCTAC	0.853 RPM ratio (pull-down/input)
GATGATTGTTCTCCCAGCTGATGAATTGTTGACTTCGAGTAAACAAATTTTCCTAATCTTTCTGTTCAAGCGCCATCTAC	2.11 RPM ratio (pull-down/input)

Sequence	binding signal
GATGATTGTTCTCCCAGCTGATGAATTGGCCATGTCGAGTAAACAAATTTTCCTAATCTTTCTGTTCAAGCGCCATCTAC	0.787 RPM ratio (pull-down/input)
GATGATTGTTCTCCCAGCTGATGAATTCATGAAATCGAGTAAACAAATTTTCCTAATCTTTCTGTTCAAGCGCCATCTAC	1.05 RPM ratio (pull-down/input)
GATGATTGTTCTCCCAGCTGATGAATTGTCTTCCTCGAGTAAACAAATTTTCCTAATCTTTCTGTTCAAGCGCCATCTAC	1.04 RPM ratio (pull-down/input)
GATGATTGTTCTCCCAGCTGATGAATTCAATTGTTCGAGTAAACAAATTTTCCTAATCTTTCTGTTCAAGCGCCATCTAC	1.04 RPM ratio (pull-down/input)
GATGATTGTTCTCCCAGCTGATGAATTGGCTCCTTCGAGTAAACAAATTTTCCTAATCTTTCTGTTCAAGCGCCATCTAC	0.818 RPM ratio (pull-down/input)
GATGATTGTTCTCCCAGCTGATGAATTCTATCCATCGAGTAAACAAATTTTCCTAATCTTTCTGTTCAAGCGCCATCTAC	0.892 RPM ratio (pull-down/input)
GATGATTGTTCTCCCAGCTGATGAATTTGAGGTATCGAGTAAACAAATTTTCCTAATCTTTCTGTTCAAGCGCCATCTAC	0.953 RPM ratio (pull-down/input)
GATGATTGTTCTCCCAGCTGATGAATTGTGTCAATCGAGTAAACAAATTTTCCTAATCTTTCTGTTCAAGCGCCATCTAC	1.33 RPM ratio (pull-down/input)
GATGATTGTTCTCCCAGCTGATGAATTCGTTCAGTCGAGTAAACAAATTTTCCTAATCTTTCTGTTCAAGCGCCATCTAC	0.884 RPM ratio (pull-down/input)
GATGATTGTTCTCCCAGCTGATGAATTGGCGCGTTCGAGTAAACAAATTTTCCTAATCTTTCTGTTCAAGCGCCATCTAC	0.93 RPM ratio (pull-down/input)
GATGATTGTTCTCCCAGCTGATGAATTGAATGGATCGAGTAAACAAATTTTCCTAATCTTTCTGTTCAAGCGCCATCTAC	0.778 RPM ratio (pull-down/input)
GATGATTGTTCTCCCAGCTGATGAATTAACTAACTCGAGTAAACAAATTTTCCTAATCTTTCTGTTCAAGCGCCATCTAC	0.959 RPM ratio (pull-down/input)
GATGATTGTTCTCCCAGCTGATGAATTTTAAGCTTCGAGTAAACAAATTTTCCTAATCTTTCTGTTCAAGCGCCATCTAC	0.827 RPM ratio (pull-down/input)
GATGATTGTTCTCCCAGCTGATGAATTTGTCTTATCGAGTAAACAAATTTTCCTAATCTTTCTGTTCAAGCGCCATCTAC	1.17 RPM ratio (pull-down/input)
GATGATTGTTCTCCCAGCTGATGAATTACTGGGCTCGAGTAAACAAATTTTCCTAATCTTTCTGTTCAAGCGCCATCTAC	0.8 RPM ratio (pull-down/input)
GATGATTGTTCTCCCAGCTGATGAATTCGTCGATTCGAGTAAACAAATTTTCCTAATCTTTCTGTTCAAGCGCCATCTAC	0.887 RPM ratio (pull-down/input)
GATGATTGTTCTCCCAGCTGATGAATTTTGAACGTCGAGTAAACAAATTTTCCTAATCTTTCTGTTCAAGCGCCATCTAC	0.909 RPM ratio (pull-down/input)
GATGATTGTTCTCCCAGCTGATGAATTGAATACTTCGAGTAAACAAATTTTCCTAATCTTTCTGTTCAAGCGCCATCTAC	0.936 RPM ratio (pull-down/input)
GATGATTGTTCTCCCAGCTGATGAATTGAGTCAGTCGAGTAAACAAATTTTCCTAATCTTTCTGTTCAAGCGCCATCTAC	0.805 RPM ratio (pull-down/input)
GATGATTGTTCTCCCAGCTGATGAATTATACATATCGAGTAAACAAATTTTCCTAATCTTTCTGTTCAAGCGCCATCTAC	1.27 RPM ratio (pull-down/input)
